Broadly, the IC50 is the point on the concentration scale where inhibition reaches its midpoint. A high value points to lower potency.

Assay [1] deals with HCT-8. Nature of the assay: Cytotoxicity against human HCT8 cells after 2 days. The note with it: HCT-8, 48 h, read-out: ED50 (the source's name). The format is functional.
The nature of assay [2]: Cytotoxicity against human KBVIN cells expressing p-glycoprotein after 2 days. The settings on record: 48 h, read-out: ED50 (the source's name). The format is functional.
Assay [3] in a line: Inhibition of tubulin assembly.
For assay [4], the system named is SK-BR-3. Nature of the assay: Cytotoxicity against human SKBR3 cells after 2 days. The settings on record: SK-BR-3, 48 h, read-out: ED50 (the source's name). The format is functional.
Assay [5] concerns A549. In words: Cytotoxicity against human A549 cells after 2 days. The format is functional. The note with it: A549, 48 h, read-out: ED50 (the source's name).
The test system of assay [6] is DU-145. Nature of the assay: Cytotoxicity against human DU145 cells after 2 days. The format is functional. The note with it: DU-145, 48 h, read-out: ED50 (the source's name).

Each structure is given as a SMILES string. In brackets after ≈: the same amount, converted by molar mass.

Turning to `COc1cc2c(c(OC)c1OC)-c1ccc(SC)c(=O)cc1[C@@H](N)CC2`, the EC50 was 0.005 µg/mL (≈ 0.0134 µM) in assay [1], 0.0139 µg/mL (≈ 0.0372 µM) in assay [2], 0.0016 µg/mL (≈ 0.00428 µM) in assay [4] and 0.0077 µg/mL (≈ 0.0206 µM) in assay [5]. Also, the IC50 in assay [3] came to 0.91 µM.
Consider `CN[C@H]1CCc2cc(OC)c(OC)c(OC)c2-c2ccc(SC)c(=O)cc21`, for which the EC50 is 0.038 µg/mL (≈ 0.0981 µM) in assay [1]; 0.0413 µg/mL (≈ 0.107 µM) in assay [2]; 0.018 µg/mL (≈ 0.0465 µM) in assay [6]; 0.0179 µg/mL (≈ 0.0462 µM) in assay [4]; 0.0476 µg/mL (≈ 0.123 µM) in assay [5]. The IC50 in assay [3] was 2.5 µM.
For `COc1cc2c(c(OC)c1OC)-c1ccc(SC)c(=O)cc1[C@@H](N)CC2.O=C(O)CCC(=O)O`, the EC50 was 0.0291 µg/mL in assay [1]; 0.033 µg/mL in assay [2]; 0.0185 µg/mL in assay [6]; 0.0115 µg/mL in assay [4]; 0.0256 µg/mL in assay [5]. Also, half-maximal inhibition in assay [3] (IC50) required 0.88 µM.

For the origin of these results see ChEMBL document CHEMBL1250441, “Antitumor agents 273. Design and synthesis of N-alkyl-thiocolchicinoids as potential antitumor agents” (Bioorg Med Chem Lett, 2010).
